We go through one molecule from paper PMC11832919 (Nature Communications, 2025).

For assay [1], the target named is human methemoglobin (coordinating oxidized heme) (human, UniProt P69905;P68871). Kind of assay: SAXS.
The target of assay [2] is human oxyhemoglobin (coordinating reduced heme) (human, UniProt P69905;P68871). As to the kind of experiment: SAXS.

B1: StrepTag II-IsdB (Staphylococcus aureus iron-regulated surface determinant protein B) (natural protein)
chain: not shown
Turning to B1, the “stoichiometry N” value in assay [1] was 2 IsdB per metHb dimer; in assay [2] it was 2 IsdB per oxyHb tetramer.

A word on the stoichiometry N: it is the number of molecules, sites or subunits per partner or assembly.
